# Test results published in PubChem BioAssay AID2675 (National Center for Advancing Translational Sciences (NCATS), 2010).
# Out of some 280,000 compounds screened, about 100 (0.036%) were called active. This list was built around the results that the source calls inconclusive (neither active nor inactive); the mix of calls is not that of the screen. Calls follow the shape of the dose curve; as a rule, active = well fitted inhibition curve with a large enough effect in the signal ratio, with a control signal flat (not every such curve was filed as active); inconclusive = small, poorly fitted or top-dose-only effect, or effect the other way, or a change in a side signal; inactive = no such curve, though single readings can be large or run the other way; the % refers to the signal ratio. Potencies beside an inconclusive call are fits to weak or partial responses and may not hold up. “Side channel” marks fits to a control or component signal instead of the main read-out.
# Biological target: Muscleblind-like protein 1 (Homo sapiens) (UniProt Q9NR56)
# UniProt Q9NR56, sequence (Q9NR56 whole entry, looked up): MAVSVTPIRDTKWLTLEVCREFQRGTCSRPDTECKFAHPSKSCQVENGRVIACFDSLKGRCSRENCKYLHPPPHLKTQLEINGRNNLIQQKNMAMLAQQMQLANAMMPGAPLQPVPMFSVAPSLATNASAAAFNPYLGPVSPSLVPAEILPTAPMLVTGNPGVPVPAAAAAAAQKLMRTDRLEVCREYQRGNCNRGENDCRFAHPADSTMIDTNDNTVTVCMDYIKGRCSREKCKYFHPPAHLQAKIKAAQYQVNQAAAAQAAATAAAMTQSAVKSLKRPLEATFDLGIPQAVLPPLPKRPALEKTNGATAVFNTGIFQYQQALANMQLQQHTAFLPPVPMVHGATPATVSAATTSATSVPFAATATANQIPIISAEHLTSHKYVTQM
# Test: qHTS Assay for Inhibitors of MBNL1-poly(CUG) RNA binding
# Details: TR-FRET MBNL1-His/biotin-(CUG)12 binding, 665/545 ratio; activity change, negative = inhibition: at 57.5 µM (top of the series)
# Method in brief: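 Compounds (final 92 nM to 58 uM) are added to His-tagged MBNL1 and biotin-(CUG)12, then terbium anti-His antibody and streptavidin-XL665 (5 nM final). After 60 min at room temperature, the 665/545 nm ratio is read.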
# % is scaled to controls: 0 for no effect and ±100 for the full control effect; potency is read from the fitted curve at half-maximal effect; tags tell the direction and shape of the fitted curve or compound fluorescence and quenching.
Structure (SMILES),Potency,"activity change, negative = inhibition"
Nc1c(-c2cccc(Cl)c2)cnn1-c1cccc([N+](=O)[O-])c1,"inconclusive: 14.1 µM [quencher, side channel, partial curve]",–
O=C(O)c1ccc(Sc2nnnn2-c2ccccc2)c([N+](=O)[O-])c1,"inconclusive: 17.8 µM [quencher, side channel, partial curve]",–
O=C(CC(NS(=O)(=O)c1ccc(Cl)cc1)c1ccco1)NCc1ccco1 (stereo not drawn),–,inactive: -8.57%
C/C(=N\NC(=O)c1ccc2nc[nH]c2c1)c1ccc([N+](=O)[O-])cc1,"inconclusive: 15.8 µM [quencher, side channel, partial curve]",–
OC(c1ccccn1)(c1ccccn1)c1ccccn1,"inconclusive: 63.1 µM [inhibitor, partial curve]",–
Cc1ccc(S(=O)(=O)N2CCOCC2)cc1NC(=O)COc1ncnc2ccccc12,–,inconclusive: -12.5% [phenotype inactive]
O=C(Nc1cc(S(=O)(=O)N2CCOCC2)ccc1O)c1ccc2c(c1)S(=O)(=O)c1ccccc1C2=O,"inconclusive: 10 µM [quencher, side channel, partial curve]",–
Cc1cc(C)c(C(N)=O)c(Nc2cccc3ccccc23)n1,"inconclusive: 35.5 µM [quencher, side channel, single point]",–
CC(=O)Nc1ccc(N2C(=O)c3cccc(NC(C)=O)c3C2=O)cc1,"inconclusive: 10 µM [quencher, side channel, partial curve]",–
O=C(O)c1ccc(/C=N/Nc2ncc(Cl)cc2Cl)cc1,"inconclusive: 28.2 µM [quencher, side channel, single point]",–
COc1ccc2[nH]c(=O)c(CN(CC3CCCO3)C(=O)Nc3ccc(F)cc3)cc2c1 (stereo not drawn),–,inactive: -3.19%
CN(C)c1oc(/C=C/c2ccccc2)nc1C#N,"inconclusive: 15.8 µM [quencher, side channel, partial curve]",–
Cc1c(C(=O)Nc2ccc3oc(-c4cccnc4)nc3c2)oc2ccccc12,–,inactive: 44.7%
COCCNc1oc(/C=C/c2ccccc2)nc1C#N,"inconclusive: 15.8 µM [quencher, side channel, partial curve]",–
CC(C)CCN1CCN(Cc2cccn2-c2ccc(Cl)cn2)CC1CCO (stereo not drawn),"inconclusive: 39.8 µM [fluorescent, side channel, single point]",–
c1ccc(C(Cc2nc(-c3cccnc3)no2)c2ccccc2)cc1,"inconclusive: 8.91 µM [quencher, side channel, single point]",–
O=C(COC(=O)c1ccc([N+](=O)[O-])o1)Nc1cccc(S(=O)(=O)N2CCCCC2)c1,"inconclusive: 22.4 µM [quencher, side channel, single point]",–
Cc1ncoc1C(=O)N1CCCC(C(=O)c2ccc(-c3ccccc3)c(F)c2)C1 (stereo not drawn),"inconclusive: 39.8 µM [fluorescent, side channel, single point]",–
COc1ccc(-c2nc(CS(=O)CC(=O)NCCCN3CC(C)CC(C)C3)c(C)o2)cc1OC (stereo not drawn),–,inactive: -0.288%

Structure (SMILES),Potency,"activity change, negative = inhibition"
COc1ccc(/C=C/C(=O)N2CCC(c3ccccc3)C2)cc1 (stereo not drawn),"inconclusive: 28.2 µM [quencher, side channel, single point]",–
O=C(NNc1cc(N2CCCC2)nc(N2CCCC2)n1)c1ccc([N+](=O)[O-])cc1,–,inactive: 17.7%
O=C(N/N=C/c1ccc2c(c1)OCO2)c1ccccn1,"inconclusive: 7.94 µM [quencher, side channel, single point]",–
CSc1ccccc1NC(=O)CN(C)CC(=O)Nc1ccc(Cl)cc1[N+](=O)[O-],"inconclusive: 15.8 µM [quencher, side channel, partial curve]",–
Cc1nnnn1CC(=O)Nc1ccccc1[N+](=O)[O-],"inconclusive: 20 µM [quencher, side channel, single point]",–
CC(C)c1cc(-c2n[nH]c(=S)n2Cc2ccccc2)cs1,–,inactive: -16.6%
CCN(CC)CCn1c(/N=C/c2cc(Br)ccc2O)nc2ccccc21,"inconclusive: 6.31 µM [quencher, side channel, single point]",–
CCOC(=O)C1CCCN(C(=O)c2ccc(CNc3c(N4CCC(C)CC4)c(=O)c3=O)cc2)C1 (stereo not drawn),"inconclusive: 3.55 µM [quencher, side channel, partial curve]",–
CNC(=S)N(C)c1ccccc1,"inconclusive: 28.2 µM [fluorescent, side channel, partial curve]",–
O=c1cc2ncc(-n3cc([N+](=O)[O-])cn3)cn2[nH]1,"inconclusive: 25.1 µM [quencher, side channel, partial curve]",–
COC(=O)CCN(C)CCC(=O)OC,–,inactive: 1.58%
CS(=O)(=O)c1ccc2nc(NC(=O)c3cc(-c4ccccc4)nn3-c3ccccc3)sc2c1,"inconclusive: 22.4 µM [fluorescent, side channel, partial curve]",–
Fc1ccc(Sc2nc(-c3ccccc3)nnc2C(F)(F)F)cc1,–,inactive: -1.58%
COCCn1c(=O)[nH]c(=O)c2c1nc(-c1ccc(-c3ccc(Cl)cc3[N+](=O)[O-])o1)n2Cc1ccccc1,"inconclusive: 17.8 µM [quencher, side channel, partial curve]",–
Nc1nonc1C(=O)NCCNC(=O)c1ccccc1F,"inconclusive: 0.708 µM [quencher, side channel, single point]",–
Nc1nc(N)c(N=Nc2ccc(SCC(=O)O)cc2)c(=O)[nH]1,"inconclusive: 31.6 µM [quencher, side channel, single point]",–
O=c1ccc(NS(=O)(=O)c2ccccc2)cn1Cc1ccc(Cl)c(Cl)c1,"inconclusive: 28.2 µM [quencher, side channel, single point]",–
Cc1ccc(Nc2nc3ccccc3s2)cc1,"inconclusive: 0.708 µM [quencher, side channel, full curve]",–
CN(C)c1ccc(N=Nc2nc3ccccc3n2C)cc1,"inconclusive: 3.55 µM [quencher, side channel, full curve]",–
